In the supplement of paper PMC4604168 (melanoma cell lines):
The other results are listed elsewhere or left out. Single values are uncertain, as repeats are few or missing.

Experiments:
Test in all cases: cell count relative to DMSO control; melanoma cells; higher = more viable cells
Settings in all cases: library dose: standard library concentration; 72 h
[1] = tested on: G361
[2] = tested on: IPC-298
[3] = tested on: IST-MEL1
[4] = tested on: LB2518-MEL
[5] = tested on: LOXIMVI
[6] = tested on: MEL-HO
[7] = tested on: MZ2-MEL
[8] = tested on: MeWo
[9] = tested on: RPMI7951
[10] = tested on: RVH-421
[11] = tested on: SkMel28
[12] = tested on: SkMel2
[13] = tested on: SkMel30
[14] = tested on: SkMel5
[15] = tested on: UACC257
[16] = tested on: UACC62
[17] = tested on: WM115
[18] = tested on: WM1716
[19] = tested on: WM3526
[20] = tested on: WM1745
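Further: cells treated in 1,536-well plates, then fixed and DAPI-stained, with nuclei counted from automated high-throughput microscope images.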

SMILES | cell count [1] [%] | cell count [2] [%] | cell count [3] [%] | cell count [4] [%] | cell count [5] [%] | cell count [6] [%] | cell count [7] [%] | cell count [8] [%] | cell count [9] [%] | cell count [10] [%] | cell count [11] [%] | cell count [12] [%] | cell count [13] [%] | cell count [14] [%] | cell count [15] [%] | cell count [16] [%] | cell count [17] [%] | cell count [18] [%] | cell count [19] [%] | cell count [20] [%]
Clc1ccc(Nc2nnc(Cc3ccncc3)c3ccccc23)cc1 [vatalanib] + COc1ccc(COc2ccc(Cc3cnc(N)nc3N)cc2OC)cc1 [GW2580] (first compound 10 µM, partner dose 5 µM) | 74.8 | 69.5 | 84.6 | 93.8 | 83.9 | 80.5 | 79.3 | 65.6 | 73.3 | 87.4 | 67.3 | 75 | 64.9 | 53.4 | 71.8 | 93 | 93.4 | 74.6 | 73.8 | –
OCc1c[nH]c2ccccc12 [Indole-3-carbinol] + Oc1nc(-c2ccc(C(F)(F)F)cc2)nc2c1CSCC2 [XAV939] (first compound 4 µM, partner dose 10 µM) | 107 | 94.1 | 115 | 95.1 | 83.3 | 84.5 | 104 | 97 | 82.1 | 90.6 | 82.1 | 107 | 90.7 | 78.8 | 86.2 | 79.5 | 83.8 | 57.9 | 116 | –
OCc1c[nH]c2ccccc12 [Indole-3-carbinol] + CC(C)CCN1c2nc(Nc3cc(F)c(O)c(F)c3)ncc2N(C)C(=O)C1C [BID1870] (first compound 4 µM, partner dose 1 µM) | 64.2 | 76.4 | 86 | 88.7 | 91.8 | 72 | 84.9 | 64.2 | 74.4 | 75.2 | 57 | 82.6 | 74 | 78 | 80.8 | 99.7 | 93.8 | 90.9 | 73 | –
Clc1ccc(Nc2nnc(Cc3ccncc3)c3ccccc23)cc1 [vatalanib] + O=C(Nc1cccc(Cl)c1)Nc1ncc(CCNc2ncnc3ccsc23)s1 [SNS314] (first compound 10 µM, partner dose 0.004 µM) | 63.3 | 81.3 | 71.2 | 79.1 | 72.4 | 70.4 | 85.3 | 71.6 | 53.4 | 68.3 | 46.5 | 69.3 | 77.2 | 67.5 | 59.7 | 100 | 69.9 | 89.7 | 71.4 | 48.5
C#Cc1cccc(Nc2ncnc3cc(OCCOC)c(OCCOC)cc23)c1 [erlotinib] + Cn1nnc2c(C(N)=O)ncn2c1=O [temozolomide] (first compound 4 µM, partner dose 10 µM) | 64 | 63.2 | 71.2 | 70.4 | 77.9 | 68.3 | 71.9 | 65.7 | 51.7 | 60.1 | 37.6 | 69.3 | 50.9 | 64.1 | 98.5 | 37.9 | 63.6 | 60.5 | 62.1 | 64.3
Clc1ccc(Nc2nnc(Cc3ccncc3)c3ccccc23)cc1 [vatalanib] + O=C(O)c1ccc(-c2c[nH]c3ncc(-c4ccccc4)cc23)cc1C1CCCC1 [GSK650394] (first compound 10 µM, partner dose 0.8 µM) | 47.9 | 67 | 52 | 94.3 | 67.3 | 63.9 | 79.6 | 51.4 | 61 | 65.1 | 74.7 | 63.3 | 69.7 | 58 | 66.7 | 89.1 | 75.5 | 73.5 | 57.9 | 28.4
COCC[n+]1c2c(n(Cc3cnccn3)c1C)C(=O)c1ccccc1C2=O + Nc1cccc2c1CN(C1CCC(=O)NC1=O)C2=O [lenalidomide] (first compound 0.002 µM, partner dose 5 µM) | 66.8 | 49.4 | 38 | 25.9 | 51.3 | 69.9 | 26.6 | 40.3 | 33.7 | 74.1 | 33.5 | 29.6 | 71.8 | 37 | 20.3 | 61.8 | 70.4 | 65 | 36.2 | 86.6
C#Cc1cccc(Nc2ncnc3cc(OCCOC)c(OCCOC)cc23)c1 [erlotinib] + COCC[n+]1c2c(n(Cc3cnccn3)c1C)C(=O)c1ccccc1C2=O [YM155] (first compound 4 µM, partner dose 0.002 µM) | 40 | 30.1 | 34 | 8.74 | 42.9 | 51.8 | 14.1 | 25.1 | 25.4 | 89.6 | 21.6 | 15.7 | 57.2 | 21.8 | 25.5 | 30.3 | 45.9 | 43.3 | 23.4 | 41.3
Clc1ccc(Nc2nnc(Cc3ccncc3)c3ccccc23)cc1 [vatalanib] + c1cc(-c2cnn3cc(-c4ccc(OCCN5CCCCC5)cc4)cnc23)ccn1 [Dorsomorphin] (first compound 10 µM, partner dose 2 µM) | 35.8 | 62.1 | 73.9 | 52.8 | 76 | 67.2 | 10.7 | 51.1 | 44 | 73 | 26 | 66 | 78.1 | 56.7 | 77.8 | 65.2 | 54 | 69.1 | 70.2 | –
Clc1ccc(Nc2nnc(Cc3ccncc3)c3ccccc23)cc1 [vatalanib] + O=c1cc(-c2cccc3c2Sc2ccccc2S3)oc(N2CCOCC2)c1 [KU55933] (first compound 10 µM, partner dose 5 µM) | 41.6 | 60.8 | 73.1 | 68.9 | 76.3 | 57.5 | 78.6 | 55.5 | 69.1 | 69.3 | 71.8 | 68.4 | 95.6 | 65.6 | 76.5 | 77.5 | 72 | 85.3 | 61.2 | –
O=C(CCCCCCC(=O)Nc1ccccc1)NO [vorinostat] + CO[C@@H]1[C@H](N(C)C(=O)c2ccccc2)C[C@H]2O[C@]1(C)n1c3ccccc3c3c4c(c5c6ccccc6n2c5c31)C(=O)NC4 [Midostaurin] (first compound 0.4 µM, partner dose 0.4 µM) | 28.2 | 48.6 | 62.2 | 51.5 | 41.6 | 74.7 | 48.6 | 67.4 | 21.7 | 57.4 | 32.3 | 29.5 | 42.8 | 47.2 | 46.8 | 58.5 | 36.9 | 42.1 | 45.4 | 37.6
OCc1c[nH]c2ccccc12 [Indole-3-carbinol] + Cc1cc([N+](=O)[O-])ccc1NS(=O)(=O)c1cc(Cl)ccc1Cl [FH535] (first compound 4 µM, partner dose 5 µM) | 40.1 | 49.9 | 53.5 | 77.4 | 68.2 | 49 | 57.6 | 80.8 | 88.8 | 51.4 | 58 | 78.2 | 76.7 | 60 | 64 | 78.7 | 82.6 | 81 | 64.9 | –
Clc1ccc(Nc2nnc(Cc3ccncc3)c3ccccc23)cc1 [vatalanib] + Oc1cc(-c2nc(-c3ccccc3)[nH]c2-c2ccncc2)ccc1Cl [L779450] (first compound 10 µM, partner dose 1 µM) | 44.4 | 72.5 | 76.2 | 82.3 | 77.2 | 59.7 | 72 | 48 | 64.5 | 64.9 | 44.8 | 23.7 | 74.9 | 49.6 | 90 | 51.1 | 52.9 | 64.3 | 44.5 | –
Clc1ccc(Nc2nnc(Cc3ccncc3)c3ccccc23)cc1 [vatalanib] + O=C(CCCCCCC(=O)Nc1ccccc1)NO [vorinostat] (first compound 10 µM, partner dose 0.4 µM) | 59 | 69.6 | 67.5 | 64.6 | 70.4 | 64.8 | 67.6 | 53.4 | 44 | 76.3 | 44.7 | 48.1 | 73.5 | 53.2 | 76.8 | 67.7 | 81.1 | 78 | 52.5 | 26.4
C#Cc1cccc(Nc2ncnc3cc(OCCOC)c(OCCOC)cc23)c1 [erlotinib] + COc1ccc2c(c1)CCC1C2CCC2(C)C(NCCCCCCN3C(=O)C=CC3=O)CCC12 [U73122] (first compound 4 µM, partner dose 2 µM) | 40.3 | 62.1 | 75.1 | 61.3 | 39.4 | 67.9 | 72.8 | 49.3 | 16.9 | 65.2 | 45.5 | 82.5 | 75.6 | 61 | 79.4 | 42.7 | 74.2 | 75.4 | 68 | 40.7
Nc1cccc2c1CN(C1CCC(=O)NC1=O)C2=O (stereo not drawn) [lenalidomide] + NC(=O)Nc1cc(-c2cccc(F)c2)sc1C(=O)N[C@H]1CCCNC1 [AZD7762] (first compound 5 µM, partner dose 0.1 µM) | 90 | 91.9 | 32.4 | 76.7 | 65.8 | 81.4 | 112 | 75.5 | 43 | 15.5 | 39.9 | 80.6 | 89.4 | 73 | 96.5 | 95.1 | 57.6 | 73.2 | 67.6 | 45.2
O=C(CCCCCCC(=O)Nc1ccccc1)NO [vorinostat] + C[C@@H]1CCN(C(=O)CC#N)C[C@@H]1N(C)c1ncnc2[nH]ccc12 [CP690550] (first compound 0.4 µM, partner dose 5 µM) | 71.4 | 88.9 | 98.7 | 93 | 69.2 | 91.3 | 111 | 95.7 | 59.2 | 118 | 55.3 | 76.4 | 82.2 | 82 | 62.4 | 64.8 | 81.1 | 87.2 | 77.4 | 84.8
Clc1ccc(Nc2nnc(Cc3ccncc3)c3ccccc23)cc1 [vatalanib] + Nc1cccc2c1CN(C1CCC(=O)NC1=O)C2=O [lenalidomide] (first compound 10 µM, partner dose 5 µM) | 65 | 62.1 | 84.2 | 78.8 | 61.3 | 58.9 | 63.7 | 67.9 | 86.9 | 87.7 | 85.3 | 88 | 94.1 | 76.5 | 85.8 | 58.4 | 104 | 112 | 81.4 | 62.7
